Test results published in the supplement of paper PMC11417369.
± gives the standard deviation of the averaged measurements. The list shows a part of the results.

Each sequence was assayed on PfAP2-I AP2 domain 3 (GST-tagged) (assay: gcPBM binding intensity (ln(normalized median fluorescence intensity)); higher = stronger DNA binding).
Outline: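 Plasmodium falciparum DNA-binding domains carrying a GST tag were expressed in E. coli and applied for 1 h, at about 25 μg on average, to an Agilent 4 × 180k array. The array held primer-extended double-stranded 36-bp intergenic genomic probes together with negative controls, and binding took place in 1× PBS with 1% milk, 0.2 mg/ml BSA, 0.5% salmon testes DNA and 0.03% Triton X-100. An Alexa488 anti-GST antibody detected bound protein, and the array was scanned at 488 nm. Binding intensity is taken as the highest Masliner-normalised natural-log median intensity across replicate spots of either probe orientation.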

Sequence | gcPBM binding intensity (ln)
TAATTATACTTATTTTGTACGCAATATTTAAAATAA [XGTACX_site8516] | 8.115 ± 0.007
ACATATAAATGATATGTACACACATTTATATATATA [CACACA_site9152] | 8.62 ± 0.26
ATTTCTCTATCGTAATGTACAAAAAAAAGGAAAAAA [XGTACX_site1323] | 7.75 ± 0.49
TTTTTAACGTATAAGGTGCACTGTATATGGTACTCA | 11 ± 0.33
ATAATTACATTCCATACACACATATATTTAAAGGTT [CACACA_site7403] | 7.83 ± 0.73
TTCTTGTTCCTGAAAGTGCATATAACAAAAATAACA [GTGCAC_site9635] | 9.99 ± 0.3
AATGATATATTTAAATGTACACATGAAATATAATAT [XGTACX_site2678] | 7.86 ± 0.43
TATCTTCAAGTATGTACACACTATATATAATAAAAT [CACACA_site5368] | 8.11 ± 0.13
TTATATTTGATAGTTTGTACATATAATTATTATCAT [XGTACX_site5676] | 7.86 ± 0.42
TTTTCTGTGTTTACATGTACGAAAGATTAATATTAT [XGTACX_site5214] | 7.92 ± 0.47
ATTTGATAGACACATGCACACATGCAATACTTTATT [CACACA_site5633] | 8.81 ± 0.77
TTATCATATCATGGAAGTACAAATAAAATATATAAC [XGTACX_site1608] | 8.08 ± 0.67
TATATAAAAATATACACACACAAATGTATATATATA [CACACA_site220] | 8.78 ± 0.35
TACATACATACATACACACACATATAGATTTATATA [CACACA_site6999] | 8.79 ± 0.75
ATATATATATATATATCACACATTAATAATATATAT [CACACA_site5081] | 9.21 ± 0.38
ATCAATCATGGTTTTACACACACATGCATGTGAAAA [CACACA_site1350] | 7.93 ± 0.57
TCTTTATTATTCGCCACACACATATAAATATAAATA [CACACA_site7441] | 8.29 ± 0.42
ATAATTTTGTATAATTGTACATTATTTTAAATAAAT [XGTACX_site7952] | 7.72 ± 0.52
AAAACATAACATTGTTGTACTACTAATAAAATAAGT [XGTACX_site6149] | 8.18 ± 0.34
TTTTTTTTTTTTTTTAAACACACGGTGTGAAAATTA [CACACA_site3818] | 8.19 ± 0.64
AGTAGAATATCCCCTACACACCCAAGTAATTTACAA [CACACA_site6708] | 8.02 ± 0.71
AAATGTGAAAAAGAGTGTACCCGACTTGAAATTAAG [XGTACX_site8621] | 8.07 ± 0.58
TTTAATTTTCAATGGCGTACATATAAAATATTATAT [XGTACX_site1672] | 7.98 ± 0.099

Sequence | gcPBM binding intensity (ln)
ATATGCACTTTTTGCACACGTATGAATAACAAAATA [CACACA_site1810] | 10 ± 0.25
GATGAATAATATGTATGTACATATGCATTATGATGT [XGTACX_site7655] | 8.24 ± 0.59
ACATATAGATAAATATGTACATATATATATATATAT [XGTACX_site1806] | 9.22 ± 0.22
TGTAATATATGTATTGCACACCTATAACCATTATTT [CACACA_site8422] | 9.89 ± 0.3
ATAATTATATTTAGTGGTACTACTTTTGATAATTAG [XGTACX_site6562] | 7.61 ± 0.44
TATAAGTGCCGTTATACACACGTTATATAAATATTA [CACACA_site4401] | 8.31 ± 0.11
ATCAAAAGAAGACACACACACATACCTATAAATATA [CACACA_site7736] | 7.86 ± 0.45
AATAGTTATTCCAGGTGTACATAACATATAATTTAC [XGTACX_site1340] | 7.95 ± 0.64
TTATTATTATTACTTACGCACACTTTTTTTTTTATT [CACACA_site411] | 8.66 ± 0.52
GACAATTATATGTAGGTGCATATACAAATTTTTTAA | 10.4 ± 0.57
ATAGGATATTATTCCTGTACATATATATATATATAT [XGTACX_site2108] | 9.12 ± 0.47
ATAAAAAATATCACATAAAATAAAAAAAGAAAGGAT [XGTACX_negctrl_site294] | 8.18 ± 0.58
ATATATAAAAATAAATGTACATATTCATATGATGAT [XGTACX_site3411] | 7.75 ± 0.41
TATATATATACAGTAGTGCATATATTTAAAATATAT [GTGCAC_site9999] | 10.3 ± 0.29
TATATATAAAAATATACACACTGTATTATTGTAATA [CACACA_site5959] | 7.51 ± 0.38
ATATAAGTATATCTATGTACATACAATATAAATGTA [XGTACX_site2153] | 7.72 ± 0.34
TATATACATACATATTGTACTTATAAAGATTAATTT [XGTACX_site2203] | 7.59 ± 0.22
ATAACGAACACTATTACACACATACATACATATGTA [CACACA_site5092] | 8.12 ± 0.5
AAAAAAAAAAAAAACACACACACATAGACCTCCAAT [CACACA_site3563] | 8.37 ± 0.69
ATATATATATATATATGTACATACAATTATATTCTC [XGTACX_site1133] | 9.53 ± 0.47
AAAAATCATTTAAGAACACACAAATATTTCCATTAA [CACACA_site1488] | 7.37 ± 0.69
TACATAAATTTTAATACATGCAAATAAAATATATAA [TGCATGCA_site131] | 8.29 ± 0.79
AATCTTCTTAATTGTAGTACACAATTTATAAACAAA [XGTACX_site8706] | 8.18 ± 0.17

Sequence | gcPBM binding intensity (ln)
AGGAGGATAGTTCACAGTACCCAGTAACTCTACGGA [XGTACX_site1997] | 7.44 ± 0.62
GCATATATGGATATATAGGTATATATAAATGCAATA [GTGCAC_negctrl_site24] | 7.82 ± 0.71
CCTCTCATTTTATATAGTACATATTTCAAAAAAAAA [XGTACX_site488] | 7.96 ± 0.36
GCATATTTTCCCTGTGAATAAAGTTTTTTTTTTTAT [XGTACX_negctrl_site87] | 7.76 ± 0.93
ATATAAAAAAAAAATTGTACAAAAATATATACATAT [XGTACX_site469] | 7.67 ± 0.48
TATAAAGATATAAATGCACACGTATTAAAAAAAAAA [CACACA_site8223] | 9.47 ± 0.17
TCTAATACACAATGTTGTACATATTAATATATATGT [XGTACX_site2931] | 7.91 ± 0.38
ATCATTCTTAAACCGTGTACTTATTATTTTTTTTTT [XGTACX_site2798] | 8.18 ± 0.52
AAAATACACGATAGTTGTACATTAAATGTATACAAT [XGTACX_site360] | 7.74 ± 0.45
CATCCGTTGATATATGCATGCATATTGTTATTACCA [TGCATGCA_site868] | 7.96 ± 0.88
AAATGACTATATAAAAGTACTAGAAAGTATAAATAT [XGTACX_site944] | 7.75 ± 0.59
AAAAATAGAGCAGCTCTCATATTTTTATGTGCAATA [CACACA_negctrl_site837] | 8.28 ± 0.57
ACAAAAATATTTGTAAAAAGAAATATAAATAAATAA [TGCATGCA_negctrl_site357] | 7.61 ± 0.74
TATTACACACAATATTGTACACATAGGAAAAATATT [XGTACX_site1726] | 8.12 ± 0.4
GCATTTATGAAAAATGTACACACATCAAATGCTTAT [CACACA_site9347] | 7.74 ± 0.47
AGGATATATTATATGTACACACACATATAAGGGATT [GTGCAC_negctrl_site47] | 7.96 ± 0.67
TATTTTTTACATTCGTGTACGCATTTTTGTGAATTT [XGTACX_site5339] | 7.99 ± 0.6
TAATTGTAGACATGCACACACAAATATTATATATGT [CACACA_site845] | 8.12 ± 0.54
TAATTTTTTTTAAACACACACATTACATTCAAAAAT [CACACA_site127] | 7.8 ± 0.47
TTCACTAATAAATACGCACACATATACATATATATA [CACACA_site1383] | 8.57 ± 0.6
TTTCAAATATATATAGCACACAAGGTATAATATAAA [CACACA_site877] | 8.74 ± 0.085
TTTTAATTAGTACAAACACACATATACACCCAAAAA [CACACA_site5422] | 8.64 ± 0.26
ATATAAAAAAGGGAGGTAAATGAATGTGAAACCCAA [GTGCAC_negctrl_site359] | 7.84 ± 0.76

Sequence | gcPBM binding intensity (ln)
CTAATATAGGTATGCACACACAATATGTACATATTT [CACACA_site7558] | 8.41 ± 0.43
AAGGTATAGAAACACACACACGTGAATATAGTTTAA [CACACA_site5109] | 7.69 ± 0.52
CGTTATATAATAAAGGTGCATAGATATATCATTATA [GTGCAC_site9774] | 10.2 ± 0.25
TATATAACATATATATGTACACATAATATCAGATTT [XGTACX_site1041] | 7.77 ± 0.35
TATATATGTATATATTGTACTTTAAGACAAATATAT [XGTACX_site1052] | 7.61 ± 0.47
AATATTTTTCAATTTCATGTGCATTCATTGAAGTTA [CACACA_negctrl_site1232] | 8.76 ± 0.37
TTCTTAAATATATTCAACATACATAATATATAATCT [CACACA_negctrl_site1806] | 7.63 ± 0.56
ATGTTTAAATTTTTCAGTACATATATTCTAGTAAAA [XGTACX_site1010] | 7.83 ± 0.48
GATATATTACTTAAAATACACACCATGGAAAAGTTT [CACACA_site2606] | 7.97 ± 0.61
GAATATGTTAACATTTGTACATAAAATTTTTTACAA [XGTACX_site2444] | 7.83 ± 0.35
AATATATATATATATCCACACACATACATATATTAA [CACACA_site7907] | 7.92 ± 0.51
ATGGTTTTTATTTTATGTACTTACTAAAATGAATAA [XGTACX_site4317] | 7.97 ± 0.27
TACATAAAAATATATGCATGTTCTTATTTAATAAAA [TGCATGCA_site743] | 7.57 ± 0.38
ATATGTAAAATATGGTGTACAATCAAATAAAAAAAA [XGTACX_site6270] | 8.21 ± 0.3
ATTAATATATTTACCACACACCCATTTCGATTTTAT [CACACA_site3605] | 8.16 ± 0.59
CATATAAAAGGACACACACACACATATATATATATA [CACACA_site4674] | 9.27 ± 0.16
TATTTTATTTTTTGTTGTACATATATATTATATATA [XGTACX_site4513] | 8.11 ± 0.38
TATACATAAAAAAATTTTACCAGGTTAATACAAATA [CACACA_negctrl_site1171] | 7.67 ± 0.45
TTCCTTTGTTGTCGTTGTACTTATATGGTTATAATT [XGTACX_site3082] | 8.29 ± 0.64
TACCTTATGTTATATACACACATATAACATAATATA [CACACA_site6741] | 7.97 ± 0.59
